# Experimental data taken from PMC6711944.
# The chains behind the UniProt entries cited, without tags or fusion partners. Residues count along the entry.
# UniProt P05161, residues 1-157: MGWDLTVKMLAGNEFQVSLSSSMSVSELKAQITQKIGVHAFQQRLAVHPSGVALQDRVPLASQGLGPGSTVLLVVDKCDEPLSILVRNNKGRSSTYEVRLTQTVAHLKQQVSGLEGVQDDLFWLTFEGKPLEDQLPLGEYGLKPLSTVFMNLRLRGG
# UniProt Q64339, residues 1-155: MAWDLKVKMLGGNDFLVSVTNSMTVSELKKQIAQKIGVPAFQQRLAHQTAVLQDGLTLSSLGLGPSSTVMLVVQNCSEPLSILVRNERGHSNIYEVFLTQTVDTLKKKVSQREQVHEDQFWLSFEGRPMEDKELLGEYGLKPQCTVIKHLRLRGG
# UniProt O02741: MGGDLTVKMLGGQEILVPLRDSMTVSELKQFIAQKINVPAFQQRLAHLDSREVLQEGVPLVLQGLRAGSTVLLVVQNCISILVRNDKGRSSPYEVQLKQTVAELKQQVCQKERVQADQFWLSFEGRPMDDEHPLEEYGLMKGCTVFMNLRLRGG
# No constants are given. Whether binding was seen depends on the method and setting. Binding seen in cells or lysates may run through a third protein. Some entries that bind do so weakly or less than the wild type. Tags and fused reporters may be left off the sequences shown.
# Legend:
# Experiment in all cases: co-IP
# [1] = target: 3xFlag-ISG15, human (wild type) (human) (UniProt P05161)
# [2] = target: 3xFlag-ISG15, murine (wild type) (murine) (UniProt Q64339)
# [3] = target: 3xFlag-ISG15, bovine (wild type) (bovine) (UniProt O02741)
binder,measurement,setting,value
"NS1B-HA (full-length influenza B virus NS1 protein) (protein, UniProt P03502 1-281) MADNMTTTQIEVGPGATNATINFEAGILECYERFSWQRALDYPGQDRLHRLKRKLESRIKTHNKSEPENKRMSLEERKAIGVKMMKVLLFMDPSAGIEGFEPYCVKNPSTSKCPNYDWTDYPPTPGKYLDDIEEEPENVDHPIEVVLRDMNNKDARQKIKDEVNTQKEGKFRLTIKRDIRNVLSLRVLVNGTFLKHPNGDKSLSTLHRLNAYDQNGGLVAKLVATDDRTVEDEKDGHRILNSLFERFDEGHSKPIRAAETAVGVLSQFGQEHRLSPEEGDN",binding,[1],binds
same,binding,[2],no binding
same,binding,[3],no binding
